The source of these data is the supplement of paper PMC11417369.

± gives the standard deviation of the averaged measurements. This is one part of the list.

The test system of this experiment is PfAP2-I AP2 domain 3 (GST-tagged). Kind of experiment: gcPBM binding intensity (ln(normalized median fluorescence intensity)); higher = stronger DNA binding. The gist of the method:
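After 1 h on an Agilent 4 × 180k array of primer-extended double-stranded 36-bp intergenic genomic probes and negative controls, bound GST-tagged P. falciparum DNA-binding domains were detected with Alexa488 anti-GST antibody and scanned at 488 nm. The domains had been expressed in E. coli, and binding took place in 1× PBS with 1% milk, 0.2 mg/ml BSA, 0.5% salmon testes DNA and 0.03% Triton X-100. Binding intensity is the highest Masliner-normalised natural-log median intensity across replicate spots of either probe orientation.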
With “TTCTTTCTTCAAAAGTGTACCAAATGTTAGAAAGGT [XGTACX_site4353]”, the “gcPBM binding intensity (ln)” value was 8.18 ± 0.52.
“TTTAAAAATTAATTCTGTACACATTTTTATTTTATT [XGTACX_site8]”: the “gcPBM binding intensity (ln)” value was determined as 7.71 ± 0.39.
As for “AATATATGAATTATATGTACATATAGATAAGTCACA [XGTACX_site7637]”, the figure is 7.96 ± 0.48; as for “TATTATAGAAATTTAATGTTGGACAAAAAAATGAAA [CACACA_negctrl_site1351]”, 7.87 ± 0.46; as for “TCTTAATATCGTTTCTCACACATATACAAACATAAA [CACACA_site5700]”, 8.09 ± 0.57.
As for “AAATTATTTATTTTATGTACATATTATTAAAGTTAA [XGTACX_site552]”, the figure is 7.83 ± 0.26.
Take “AGAGAGAAAGCTATAACATGCAACAATTTTTAGAAC [TGCATGCA_site596]”: the “gcPBM binding intensity (ln)” value turned out to be 7.82 ± 0.88.
As for “ATAAATGACAAATTAACACACATATATTATAGATAT [CACACA_site7770]”, the figure is 7.72 ± 0.28; as for “TAATGCATTTTCGCATGTACATATTTCTCTTTATAT [XGTACX_site8915]”, 7.75 ± 0.69.
Take “ATCTATATTTAATTTACACACAAAAAAAATTGTTGG [CACACA_site6582]”: the “gcPBM binding intensity (ln)” value was determined as 7.92 ± 0.42.
Under “AAAATGTGATATGTAAATATATATGTATGTATATAT [CACACA_negctrl_site1748]” stands 7.89 ± 0.38; under “ATAATATTAATATGTACACACCTTAATCCTTAAAAG [CACACA_site7640]”, 8.03 ± 0.35; under “TATACCTGAATTAAAAGTACATGTATATATTTTCCC [XGTACX_site3594]”, 7.6 ± 0.4.
As for “ATAATTTTTTAAGTGTGTACTAAAATGTGTATTTTA [XGTACX_site6227]”, the figure is 7.95 ± 0.18.
Turning to “GTATTTATATGATTAACACACATATGGGTATTAATA [CACACA_site4853]”, the “gcPBM binding intensity (ln)” value is 7.63 ± 0.64.
Under “TTGCATTTTCTAGTAACACACAATTAGCGTTGCTGT [CACACA_site3594]” stands 7.76 ± 0.42; under “TAACAAAAAGGGAACACATGCGCTCTTTATTTATTT [TGCATGCA_site620]”, 7.51 ± 0.57.
As for “TATAGAAGCATTCACACACACACATACATACACATA [CACACA_site1466]”, the figure is 8.03 ± 0.35; as for “ATACATATAAATAATTGTACTATTAAAAAAGAACGT [XGTACX_site3751]”, 7.95 ± 0.45.
As for “CTTAGAATATATGAATGTACTTTTTTTTTTAAATAA [XGTACX_site6048]”, the figure is 7.29 ± 0.38; as for “ATAATATATTTTTGTAGTACACTTCTGGTAATATCG [XGTACX_site2402]”, 8.07 ± 0.45.
Take “AGTATACAGATATATACACACATATATATATATATA [CACACA_site4323]”: the “gcPBM binding intensity (ln)” value was 9.37 ± 0.47.
Take “AAAAAAAAAAATACTCGTACATAAACCTATACATTT [XGTACX_site6494]”: the “gcPBM binding intensity (ln)” value was determined as 7.61 ± 0.4.
As for “CAATTAGCATTTTATTGTACATTTATAATCTATGAT [XGTACX_site1445]”, the figure is 7.71 ± 0.55; as for “TATATATATATATGTTGTACAAAAATGTAAAATATA [XGTACX_site7761]”, 9.19 ± 0.18.
As for “TAAGTAACTTTTAAAAGTACCCACACATATATATAT [XGTACX_site1231]”, the figure is 8.73 ± 0.38.
On to “ACAAAAATAAACTATAGTACACACTTATTATTATGA [XGTACX_site5680]”, for which the “gcPBM binding intensity (ln)” value was 7.88 ± 0.56.
As for “TCATTTTATTTTTTCACACACACATCTATATTTATA [CACACA_site7547]”, the “gcPBM binding intensity (ln)” value is 8.12 ± 0.67.
“TTTCTTTTTTTTTTTTTTTTTTTTTTTTTTTTTTTT [TGCATGCA_negctrl_site91]”: the “gcPBM binding intensity (ln)” value was found to be 10.3 ± 0.26.
As for “TATATTTATAGGTATACACACATATGTATGTTATGT [CACACA_site7824]”, the figure is 7.74 ± 0.45; as for “TTATGTATTTATATAAATATAAATATATATATATAT [CACACA_negctrl_site774]”, 9.17 ± 0.42; as for “TTTCCCTTGTTGTAAACATGCACAATATTTAGGTAT [TGCATGCA_site49]”, 8.39 ± 0.49.
Under “AAAAAAAAGAAAAACACACACATATATATATAGAAT [CACACA_site1006]” stands 7.67 ± 0.71.
Under “AAAATATTTATTACTTCACACATTATTGTATTTATA [CACACA_site5082]” stands 7.84 ± 0.61; under “CATATATTATTATATGCACACATGAAAATATACAAA [CACACA_site2795]”, 9.63 ± 0.33; under “TTGAAATATACGTAAGTAAATTTCATTTGGTTGTGT [XGTACX_negctrl_site600]”, 7.5 ± 0.61.
Regarding “TTTCTTTTTTTATAATCCACATTGGGAAAATCAAAA [TGCATGCA_negctrl_site159]”, the “gcPBM binding intensity (ln)” value is 7.92 ± 0.39.
As for “ACGTATAATATGTACACACACATATATACAAAAAAA [CACACA_site917]”, the figure is 8.225 ± 0.064.
With “GTATAACTTTTGCGCGTACACACATTTATCCTCTTT [CACACA_site208]”, the “gcPBM binding intensity (ln)” value was 8.78 ± 0.49.
As for “AAAGTTGTTACGAACATACACACGAACATACTCACG [CACACA_site604]”, the figure is 7.65 ± 0.58.
As for “TAGAATATCCCCTACACACCCAAATAATTTACAAAT [CACACA_site4825]”, the figure is 8.15 ± 0.68; as for “AAGATATTTGAATATACACACGATTTAAATTTAATA [CACACA_site3866]”, 7.62 ± 0.54; as for “ATACGTGGGCAAAAAGTGCATATAATCAAAAAAAAA [GTGCAC_site9961]”, 10.4 ± 0.11.
Regarding “ATATATATATTTGTATGTACATATCATATTGTGTGT [XGTACX_site1580]”, the “gcPBM binding intensity (ln)” value worked out at 8.825 ± 0.021.
As for “TTCTTTCTGTTTTATTTATAATAATTTATGATAAAA [CACACA_negctrl_site766]”, the figure is 8.06 ± 0.44; as for “TGTTTTTAATTTCGCACACACCTTGTGGAAAAAAAA [CACACA_site4482]”, 8.72 ± 0.26.
As to “ACACATACATATACATACACATTGTTTTCATGCATC [XGTACX_negctrl_site126]”, the “gcPBM binding intensity (ln)” value came out at 8.06 ± 0.78.
On to TATATGTGTCTACAGGTGCATATATCATATATTGCT, for which the “gcPBM binding intensity (ln)” value is 9.89.
Under “TAAATAAATTTATACACACACACACGGATATAAATA [CACACA_site6532]” stands 7.86 ± 0.64; under “TATAAATATTTATACACACACATATATTTATATATC [CACACA_site6366]”, 7.83 ± 0.41.
With “TATGTATTTTTATGCACACATGCGTGGCTTATATAA [CACACA_site387]”, the “gcPBM binding intensity (ln)” value was 10.9 ± 0.13.
Take “ATATTTTCTTTAAATTGTACATATTGTGATACAAAA [XGTACX_site5886]”: the “gcPBM binding intensity (ln)” value came out at 7.86 ± 0.42.
As for “TATATACATACATGTAGTACCTAATTCGGTCCCGTA [XGTACX_site2702]”, the figure is 7.66 ± 0.61; as for “TTTCATTTAGCTTTTACACACTATATATTATTGATT [CACACA_site16]”, 7.91 ± 0.49; as for “ATTTTTTTTTTTTTTTTTTTTTTGTTTATACAAAAT [CACACA_negctrl_site1241]”, 7.59 ± 0.46.
Under “GTTTGGTGGTGTTTTGGTACGTACGGGGGGGTATGT [XGTACX_site1983]” stands 10.7 ± 0.37.
